In the supplement of paper PMC7826260:
The list shows a part of the results. The data describe in vitro nicking of single-stranded DNA by Rep domains for 1 h at 37 °C with 3 µM enzyme; only the middle of the 90-letter strands is printed. Values are log2 of uncut reads against the no-enzyme pool; strong cutting gives strongly negative numbers. There is no active / inactive call. Counts are relative to all reads; where an enzyme cuts many sequences, the uncut ones exceed 0.

Tests used:
Test in all cases: uncleaved DNA left, log2 of reads against the no-enzyme library (log2 ratio); higher = less cleavage (more negative = more Rep cleavage of the k-mer); sequences stand for … in CTCGTCCG…ACCGGAGA
[1] = tested on: T1, Rep nickase domain of Muscovy duck circovirus
T1 sequence (residues 1-111, tag not shown): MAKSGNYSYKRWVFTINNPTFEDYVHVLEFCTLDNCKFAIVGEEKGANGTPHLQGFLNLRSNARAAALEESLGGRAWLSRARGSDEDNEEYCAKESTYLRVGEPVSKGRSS
Experimental: (§1)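 A pool of 90-nt single-stranded DNAs with seven random bases just before the constant AC of the nick site (name = the seven bases) was cut by 3 µM recombinant His6-SUMO-tagged Rep nickase domain (300 nM DNA, 50 mM HEPES pH 8.0, 50 mM NaCl, 1 mM MnCl2, 1 h, 37 °C, three replicates). Uncut DNA was amplified and sequenced.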

[2] = tested on: T2, Rep nickase domain of banana bunchy top virus
T2 sequence (residues 1-94, tag not shown): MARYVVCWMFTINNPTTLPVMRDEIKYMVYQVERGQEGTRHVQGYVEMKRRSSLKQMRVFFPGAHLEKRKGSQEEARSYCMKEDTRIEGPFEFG
Experimental: as §1

[3] = tested on: T3, Rep nickase domain of cabbage leaf curl virus
T3 sequence (residues 1-116, tag not shown): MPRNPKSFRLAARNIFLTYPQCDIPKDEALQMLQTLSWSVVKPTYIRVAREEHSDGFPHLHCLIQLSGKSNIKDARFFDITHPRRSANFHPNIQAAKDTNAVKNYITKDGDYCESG
Experimental: as §1

[4] = tested on: T4, Rep nickase domain of chickpea chlorotic dwarf virus
T4 sequence (residues 1-124, tag not shown): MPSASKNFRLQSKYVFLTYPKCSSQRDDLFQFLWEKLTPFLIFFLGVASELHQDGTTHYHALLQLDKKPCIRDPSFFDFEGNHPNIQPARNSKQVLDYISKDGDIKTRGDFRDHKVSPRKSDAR
Experimental: as §1

[5] = tested on: T5, Rep nickase domain of faba bean necrotic yellows virus
T5 sequence (residues 1-98, tag not shown): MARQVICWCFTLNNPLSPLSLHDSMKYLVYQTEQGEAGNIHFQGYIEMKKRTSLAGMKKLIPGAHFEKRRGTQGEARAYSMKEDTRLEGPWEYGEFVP
Experimental: as §1

[6] = tested on: T6, Rep nickase domain of maize striate mosaic virus
T6 sequence (residues 1-117, tag not shown): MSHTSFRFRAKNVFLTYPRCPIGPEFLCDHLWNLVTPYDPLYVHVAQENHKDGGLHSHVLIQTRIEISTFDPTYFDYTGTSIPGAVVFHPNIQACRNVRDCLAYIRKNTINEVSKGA
Experimental: as §1

[7] = tested on: T7, Rep nickase domain of porcine circovirus 2
T7 sequence (residues 2-116, tag not shown): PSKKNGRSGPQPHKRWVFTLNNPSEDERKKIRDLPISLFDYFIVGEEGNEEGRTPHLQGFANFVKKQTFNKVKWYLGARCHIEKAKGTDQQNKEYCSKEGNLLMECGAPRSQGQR
Experimental: as §1

[8] = tested on: T8, Rep nickase domain of tomato golden mosaic virus
T8 sequence (residues 1-124, tag not shown): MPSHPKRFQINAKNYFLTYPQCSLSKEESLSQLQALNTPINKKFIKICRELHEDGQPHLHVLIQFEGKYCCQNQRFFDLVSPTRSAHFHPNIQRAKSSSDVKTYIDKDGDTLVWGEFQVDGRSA
Experimental: as §1

[9] = tested on: T9, Rep nickase domain of tomato yellow leaf curl virus
T9 sequence (residues 1-136, tag not shown): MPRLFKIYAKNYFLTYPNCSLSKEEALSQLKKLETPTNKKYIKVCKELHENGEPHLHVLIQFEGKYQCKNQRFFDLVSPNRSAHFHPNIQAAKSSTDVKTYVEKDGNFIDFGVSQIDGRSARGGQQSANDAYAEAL
Experimental: as §1

[10] = tested on: T10, Rep nickase domain of wheat dwarf virus
T10 sequence (residues 1-137, tag not shown): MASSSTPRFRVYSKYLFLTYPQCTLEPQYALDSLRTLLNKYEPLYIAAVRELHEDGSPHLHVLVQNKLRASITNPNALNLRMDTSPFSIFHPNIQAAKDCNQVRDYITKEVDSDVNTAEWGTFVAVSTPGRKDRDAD
Experimental: as §1

Row | Sequence | uncleaved DNA left (log2) [1] | uncleaved DNA left (log2) [2] | uncleaved DNA left (log2) [3] | uncleaved DNA left (log2) [4] | uncleaved DNA left (log2) [5] | uncleaved DNA left (log2) [6] | uncleaved DNA left (log2) [7] | uncleaved DNA left (log2) [8] | uncleaved DNA left (log2) [9] | uncleaved DNA left (log2) [10]
1 | GCTTTTG | 0.0238 | -0.109 | -0.352 | -0.0184 | -0.0853 | -0.917 | 0.078 | -0.0826 | -0.000572 | -0.0341
2 | TTTAGGG | 0.0308 | 0.045 | 0.333 | 0.718 | -0.00293 | 0.536 | 0.195 | 0.0453 | 0.047 | -0.00662
3 | AGATGCG | -0.192 | -0.0657 | -0.302 | 1.24 | 0.0584 | 0.752 | 0.109 | -0.119 | -0.174 | -0.0531
4 | GCATGAA | 0.071 | 0.0744 | 0.0264 | 0.329 | 0.211 | -0.203 | 0.125 | 0.121 | 0.172 | 0.139
5 | CATCGGT | -0.00924 | -0.106 | 0.0768 | 0.0864 | 0.031 | -0.0358 | 0.0199 | 0.023 | 0.0375 | 0.000603
6 | TATCAAT | 0.203 | 0.127 | 0.55 | 0.282 | 0.125 | 1.09 | -0.522 | 0.0707 | 0.243 | 0.355
7 | AGGAAGC | 0.188 | 0.126 | 0.14 | 0.264 | 0.00382 | -0.42 | 0.214 | 0.133 | 0.13 | 0.0853
8 | CCTTCAC | -0.00644 | -0.0865 | -0.127 | -0.567 | -0.167 | -0.824 | 0.0191 | -0.0202 | -0.149 | 0.00737
9 | AGTTTAA | -0.00892 | 0.184 | 0.139 | -0.339 | 0.0799 | 0.000799 | -0.451 | 0.0797 | 0.033 | 0.0765
10 | GATCTTA | 0.0315 | 0.17 | 0.348 | 0.301 | 0.0661 | 1.17 | 0.0616 | 0.051 | 0.141 | 0.152
11 | TTCGGGT | 0.0579 | 0.011 | 0.225 | 0.553 | 0.107 | 1.1 | 0.141 | 0.0439 | 0.0326 | -0.0927
12 | TTCCGAG | -0.00983 | 0.0332 | 0.876 | 1.02 | 0.0136 | 2.27 | 0.194 | -0.0149 | 0.00131 | 0.143
13 | TTCAAGG | 0.168 | 0.215 | 0.705 | 1.69 | 0.157 | 1.97 | 0.227 | 0.258 | 0.0741 | 0.216
14 | ATTAGCT | -0.0137 | -0.0965 | -0.531 | -1.56 | 0.0507 | -1.12 | -0.76 | -0.0421 | 0.0416 | -0.15
15 | AACAACT | -0.0111 | -0.113 | -0.801 | -2.85 | -0.114 | -0.927 | -2.69 | -0.0573 | -0.0106 | -0.0722
16 | TATTGAG | 0.0544 | -0.0252 | -0.489 | 0.609 | 0.119 | -0.457 | 0.11 | -0.0259 | 0.133 | 0.00717
17 | CCGATGA | -0.0335 | -0.107 | 0.205 | 0.487 | -0.0419 | -0.0623 | 0.0732 | -0.0154 | -0.0464 | -0.0503
18 | ACCGGAT | 0.131 | 0.0269 | 0.336 | 1.47 | 0.0238 | 1.57 | 0.188 | 0.192 | -0.0079 | 0.11
19 | GCTTACC | 0.0188 | 0.0186 | 0.0425 | -0.749 | 0.111 | 0.573 | -0.0513 | 0.0486 | 0.105 | 0.0869
20 | TGAGGCT | 0.0484 | 0.0518 | 0.229 | 0.504 | -0.0341 | 1 | 0.162 | 0.00972 | -0.132 | 0.00417
21 | CGTGCTC | -0.0805 | -0.141 | -0.0254 | -0.156 | -0.0722 | -0.507 | -0.0183 | -0.0992 | -0.0436 | -0.0406
22 | CTTGCAT | 0.0694 | -0.0867 | -0.579 | -0.761 | -0.0647 | -1.07 | 0.0335 | -0.0295 | 0.0104 | -0.0373
23 | AACACCT | -0.0984 | -0.232 | -0.605 | -2.57 | -0.0443 | -0.266 | -1.16 | -0.0111 | -0.12 | -0.0461
24 | TACGAGG | 0.0834 | 0.0458 | 0.402 | 0.91 | 0.13 | 0.805 | 0.117 | 0.207 | -0.0215 | 0.102
25 | CACTACG | 0.0184 | 0.108 | -0.864 | -0.27 | -0.0134 | -1.08 | 0.158 | -0.115 | -0.0916 | -0.0805
26 | GTTATGC | -0.00746 | -0.000799 | 0.112 | 0.477 | -0.021 | -0.0386 | 0.12 | -0.0319 | 0.0667 | 0.0344
27 | GCAAGTG | 0.153 | 0.137 | -0.304 | -0.0814 | 0.0299 | -0.728 | 0.182 | -0.0291 | 0.0421 | 0.0457
28 | GTCCGAT | -0.0736 | 0.00961 | 0.286 | 0.893 | -0.122 | 1.52 | -0.0674 | -0.0882 | -0.0506 | -0.0962
29 | TTTTCGG | 0.0582 | 0.0266 | 0.514 | 1.47 | -0.0376 | 2 | 0.0321 | 0.0826 | -0.0609 | 0.0317
30 | AGATACT | -3.51 | -0.0673 | -0.646 | -2.59 | 0.0463 | 0.489 | -3.48 | -0.0367 | 0.123 | -0.481
